{"source": "the supplement of paper PMC10126150", "note": "Sequences with one replicate were seen in a single cluster, so their values are uncertain.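 Also: ATP exposure 15 min at 22 °C before imaging.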", "data": [{"test_system": "ATP", "experiment": "switch fluorescence ratio, 500 uM ATP over buffer (Cy3 cluster intensity, sum of 5 cycles each) (fold (ratio)); higher = stronger signal-on switching upon ATP binding; sequences stand for … in TCGTCGGCAGCGTCAGATGTGTATAAGAGACAGTTTTTTTTTTTTTTTTTTTTTTTTT…TC", "conditions": "aptamer strand: ATP DNA aptamer (quencher-CACCTGGGGGAGTATTGCGGAGGAAGG + anchor), 100 nM annealed; ATP concentration: 500 uM; one replicate", "in_short": "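Between each of five buffer/ATP cycles, the flow-cell was stripped with NaOH and re-annealed. Each cycle imaged Cy3-labelled switching-strand clusters, annealed to 100 nM quencher-labelled ATP aptamer on a modified Illumina MiSeq flow-cell, first in selection buffer and then after 15 min with 500 uM ATP at 22 °C. The fluorescence ratio is summed target-cycle over summed buffer-cycle Cy3 intensity per cluster, averaged per switch-domain sequence, with clusters outside 100-1000 RFU excluded.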", "values": [{"sequence": "CAGGAAGCCG", "switch fluorescence ratio": 1.06}, {"sequence": "TAGTTCTTCA", "switch fluorescence ratio": 0.959}, {"sequence": "GATTTTATG", "switch fluorescence ratio": 0.962}, {"sequence": "GAATTAATTA", "switch fluorescence ratio": 1.02}, {"sequence": "GCCATTCTG", "switch fluorescence ratio": 0.938}, {"sequence": "TTTTAGCTTA", "switch fluorescence ratio": 1.03}, {"sequence": "AGGCCTCTGA", "switch fluorescence ratio": 0.986}, {"sequence": "ATGATAGACT", "switch fluorescence ratio": 0.97}, {"sequence": "ACTTGTTACT", "switch fluorescence ratio": 1.04}, {"sequence": "AGGTGACATT", "switch fluorescence ratio": 1.14}, {"sequence": "GAACTAAGGG", "switch fluorescence ratio": 0.997}, {"sequence": "TCGTGTCTGC", "switch fluorescence ratio": 1.03}, {"sequence": "TAGTTCGCA", "switch fluorescence ratio": 1.08}, {"sequence": "CAGGATTTAT", "switch fluorescence ratio": 1.05}, {"sequence": "GAGGTGCTTT", "switch fluorescence ratio": 1.03}, {"sequence": "TGCAGTTAGT", "switch fluorescence ratio": 1.01}, {"sequence": "TTTTAGTCGA", "switch fluorescence ratio": 0.992}, {"sequence": "ATTTACGCTT", "switch fluorescence ratio": 1.04}, {"sequence": "TAATCCAGGG", "switch fluorescence ratio": 1}, {"sequence": "ATTTTCGCT", "switch fluorescence ratio": 0.999}, {"sequence": "ACCGGCCGAT", "switch fluorescence ratio": 1.01}, {"sequence": "TGGGGCTAAA", "switch fluorescence ratio": 0.978}, {"sequence": "GATTGAAAAA", "switch fluorescence ratio": 1.01}, {"sequence": "AAACACCGGA", "switch fluorescence ratio": 1.06}, {"sequence": "CCGGTTCATA", "switch fluorescence ratio": 1.06}, {"sequence": "AAAGCTATGT", "switch fluorescence ratio": 0.969}, {"sequence": "TCGACTCATG", "switch fluorescence ratio": 0.977}, {"sequence": "TACTCTTTTG", "switch fluorescence ratio": 0.985}, {"sequence": "GCCTCGTAAC", "switch fluorescence ratio": 1.17}, {"sequence": "CGAAATCTAC", "switch fluorescence ratio": 1.21}, {"sequence": "ACCCAGAGTC", "switch fluorescence ratio": 1.08}, {"sequence": "TGGTCAGTGC", "switch fluorescence ratio": 1.04}, {"sequence": "CTTCTCTCAA", "switch fluorescence ratio": 1.36}, {"sequence": "TCCTCGCCAG", "switch fluorescence ratio": 1.98}, {"sequence": "CTTAGGTTAT", "switch fluorescence ratio": 1.02}, {"sequence": "GGCGCTCGCC", "switch fluorescence ratio": 0.954}, {"sequence": "CTTTTTCTGT", "switch fluorescence ratio": 1.01}, {"sequence": "GCTGCGAGCA", "switch fluorescence ratio": 0.98}, {"sequence": "CAGGTATACC", "switch fluorescence ratio": 0.991}, {"sequence": "CCTAGTAGCC", "switch fluorescence ratio": 1.12}, {"sequence": "CTGGGCACTC", "switch fluorescence ratio": 1.15}, {"sequence": "TAGCCCCTCG", "switch fluorescence ratio": 0.998}, {"sequence": "AAGTTTCGG", "switch fluorescence ratio": 1.01}, {"sequence": "CTTGGGTGA", "switch fluorescence ratio": 1.03}, {"sequence": "TGTGTTATCG", "switch fluorescence ratio": 1.11}, {"sequence": "AAGGAGTTA", "switch fluorescence ratio": 1.05}, {"sequence": "GTAGTGGGTT", "switch fluorescence ratio": 0.996}, {"sequence": "GGGTGGCTG", "switch fluorescence ratio": 0.944}, {"sequence": "CAGGAGAGCT", "switch fluorescence ratio": 0.965}, {"sequence": "GGCATAATAT", "switch fluorescence ratio": 1.02}, {"sequence": "GCGTTCCGTG", "switch fluorescence ratio": 1.01}, {"sequence": "GACTCCCCGT", "switch fluorescence ratio": 1.65}, {"sequence": "GGCGCGATTC", "switch fluorescence ratio": 3.22}, {"sequence": "GCAGAGTGTC", "switch fluorescence ratio": 0.923}, {"sequence": "AAGAAGAGAT", "switch fluorescence ratio": 1}, {"sequence": "AACAGGGCCG", "switch fluorescence ratio": 1.08}, {"sequence": "TTTACGCCTG", "switch fluorescence ratio": 0.988}, {"sequence": "GTCTCCGAGT", "switch fluorescence ratio": 1.16}, {"sequence": "TTTGGCCGAA", "switch fluorescence ratio": 1.05}, {"sequence": "AGGGTCCACA", "switch fluorescence ratio": 0.964}, {"sequence": "AAGTCGCTAG", "switch fluorescence ratio": 1}, {"sequence": "TCAACGTCAT", "switch fluorescence ratio": 1.1}, {"sequence": "TGTCTCCGGG", "switch fluorescence ratio": 1.02}, {"sequence": "ATGTTATAGC", "switch fluorescence ratio": 1.06}, {"sequence": "CGGTTCACGG", "switch fluorescence ratio": 1.01}, {"sequence": "GTGACTGGGG", "switch fluorescence ratio": 1.02}, {"sequence": "TAGGTCATGT", "switch fluorescence ratio": 1.04}, {"sequence": "GCATATTGTT", "switch fluorescence ratio": 0.994}, {"sequence": "AGCCGGCACG", "switch fluorescence ratio": 1.02}, {"sequence": "ACTGACTAGG", "switch fluorescence ratio": 0.983}, {"sequence": "TCATTGCATT", "switch fluorescence ratio": 1.05}, {"sequence": "TCAGCCAGGG", "switch fluorescence ratio": 1.29}, {"sequence": "GGGAGTGCCT", "switch fluorescence ratio": 1.02}, {"sequence": "TGTTATGGTC", "switch fluorescence ratio": 1.42}, {"sequence": "CGTGTTCAGG", "switch fluorescence ratio": 0.999}, {"sequence": "CATGTAACTG", "switch fluorescence ratio": 0.978}, {"sequence": "TATCATACGG", "switch fluorescence ratio": 1.02}, {"sequence": "ATCACCACCC", "switch fluorescence ratio": 1.25}, {"sequence": "CCGTATACTT", "switch fluorescence ratio": 2.09}, {"sequence": "TAAGATGACC", "switch fluorescence ratio": 0.923}, {"sequence": "ACTGATTGGT", "switch fluorescence ratio": 1.03}, {"sequence": "TTTATGACTG", "switch fluorescence ratio": 0.948}, {"sequence": "TTGTTACTAG", "switch fluorescence ratio": 0.999}, {"sequence": "GGCCTGCCGA", "switch fluorescence ratio": 1.04}, {"sequence": "GGGAGGTGAC", "switch fluorescence ratio": 1.01}, {"sequence": "TTGGATATT", "switch fluorescence ratio": 0.989}, {"sequence": "TGCGCGAGGT", "switch fluorescence ratio": 1}, {"sequence": "ACGTGTACAG", "switch fluorescence ratio": 1.04}, {"sequence": "CGAAGGAGAA", "switch fluorescence ratio": 0.965}, {"sequence": "CTAATTAAA", "switch fluorescence ratio": 0.984}, {"sequence": "GGTGTTTCCG", "switch fluorescence ratio": 0.958}, {"sequence": "TCCCACATT", "switch fluorescence ratio": 1.02}, {"sequence": "GCCAGACACA", "switch fluorescence ratio": 1.03}, {"sequence": "CAGGTCTTCA", "switch fluorescence ratio": 0.985}, {"sequence": "TGGTATCCGG", "switch fluorescence ratio": 0.968}, {"sequence": "ATCACTAACA", "switch fluorescence ratio": 1.14}, {"sequence": "GACTATGTTG", "switch fluorescence ratio": 1.04}, {"sequence": "GACGTACTTA", "switch fluorescence ratio": 1.57}, {"sequence": "TTTTTAGAGC", "switch fluorescence ratio": 0.991}, {"sequence": "GCGATCGTGT", "switch fluorescence ratio": 0.996}, {"sequence": "CCGGCCGGCG", "switch fluorescence ratio": 1.02}, {"sequence": "CGGCAGTTTT", "switch fluorescence ratio": 1.01}, {"sequence": "AGCTTTGAAA", "switch fluorescence ratio": 0.957}, {"sequence": "TCCGCTCTGG", "switch fluorescence ratio": 1.38}, {"sequence": "GGGCACGACG", "switch fluorescence ratio": 0.986}, {"sequence": "TTCTGGTAG", "switch fluorescence ratio": 1.01}, {"sequence": "GCAGACTTA", "switch fluorescence ratio": 1.01}, {"sequence": "TGGCTCTTTA", "switch fluorescence ratio": 0.96}, {"sequence": "ATAATTGATA", "switch fluorescence ratio": 1}, {"sequence": "GGTCCGCTCT", "switch fluorescence ratio": 1.02}, {"sequence": "TACCGTGATA", "switch fluorescence ratio": 1.08}, {"sequence": "GAGGAGACGA", "switch fluorescence ratio": 1.05}, {"sequence": "TTAGACTCAC", "switch fluorescence ratio": 1.1}, {"sequence": "ACATCGCTT", "switch fluorescence ratio": 1.06}, {"sequence": "GCCGCCAATG", "switch fluorescence ratio": 1.08}, {"sequence": "AGGCGGGGGA", "switch fluorescence ratio": 0.961}, {"sequence": "AAAACGGACT", "switch fluorescence ratio": 1.06}, {"sequence": "TCGTGGTTTT", "switch fluorescence ratio": 0.974}, {"sequence": "ATACTATTCA", "switch fluorescence ratio": 1.06}, {"sequence": "CGGTGCGAGG", "switch fluorescence ratio": 0.967}, {"sequence": "CCCAATCGGC", "switch fluorescence ratio": 1.24}, {"sequence": "GTTCAGTCCT", "switch fluorescence ratio": 1.04}, {"sequence": "AAAGTGCAGC", "switch fluorescence ratio": 0.953}, {"sequence": "AGGGGCCTCG", "switch fluorescence ratio": 1}, {"sequence": "GTTTGGAGTT", "switch fluorescence ratio": 0.975}, {"sequence": "AGTGCAGAGT", "switch fluorescence ratio": 1}, {"sequence": "TTTAAGCCGC", "switch fluorescence ratio": 1.05}, {"sequence": "GATAGAGCCC", "switch fluorescence ratio": 1}, {"sequence": "GGTACCGATC", "switch fluorescence ratio": 1.02}, {"sequence": "CGTCGTTGCA", "switch fluorescence ratio": 1.02}, {"sequence": "CGTATAAACA", "switch fluorescence ratio": 0.981}, {"sequence": "CGTGTAGGA", "switch fluorescence ratio": 1.05}, {"sequence": "TAGAAGTTCG", "switch fluorescence ratio": 0.956}, {"sequence": "GAGCATGGGT", "switch fluorescence ratio": 1.06}, {"sequence": "CTGTGATTG", "switch fluorescence ratio": 0.984}, {"sequence": "AGGAGTTCAG", "switch fluorescence ratio": 1.01}, {"sequence": "AAGTTCGGCT", "switch fluorescence ratio": 0.998}, {"sequence": "TCCCTAAGGG", "switch fluorescence ratio": 1.02}, {"sequence": "GTAGCTTTAT", "switch fluorescence ratio": 1.23}, {"sequence": "AGTAGATAGC", "switch fluorescence ratio": 0.998}, {"sequence": "CGTAGTAGAA", "switch fluorescence ratio": 1.05}, {"sequence": "CATTACTGTG", "switch fluorescence ratio": 1.01}, {"sequence": "GAACTAGA", "switch fluorescence ratio": 1.04}, {"sequence": "CGGGAAAAGG", "switch fluorescence ratio": 0.994}, {"sequence": "TAGGACTGCA", "switch fluorescence ratio": 1.06}, {"sequence": "CAAATAAGAA", "switch fluorescence ratio": 1.03}, {"sequence": "CTATGGATGG", "switch fluorescence ratio": 1}, {"sequence": "GCCCGATACT", "switch fluorescence ratio": 1.38}, {"sequence": "GGAGAAAATC", "switch fluorescence ratio": 2.02}, {"sequence": "TACGAAAGGG", "switch fluorescence ratio": 1.11}, {"sequence": "TGGGGAACAG", "switch fluorescence ratio": 0.988}, {"sequence": "CTATACGTA", "switch fluorescence ratio": 1.14}, {"sequence": "TGAGGTCTGT", "switch fluorescence ratio": 0.999}, {"sequence": "CCCATATAGG", "switch fluorescence ratio": 1.02}, {"sequence": "GGTAACCAAA", "switch fluorescence ratio": 1.02}, {"sequence": "GTTGGAGAAA", "switch fluorescence ratio": 1.01}, {"sequence": "GAAATGAGTG", "switch fluorescence ratio": 1.02}]}]}
